Reference: the supplement of paper PMC12009370
The other results are listed elsewhere or left out. Most values come without repeats; read them as rough.

Key:
IMR-32 [1] = assay: drug sensitivity score (DSS), single drug with vehicle (DSS (score)); higher = more cytotoxic; extreme values may be limits of the assay; details: 72 h; co-treatment: vehicle (DMSO)
SK-N-AS [2] = assay: as above; details: 72 h; co-treatment: vehicle (DMSO)
SK-N-AS [3] = assay: drug sensitivity score (DSS) in combination with SL-176 (DSS (score)); higher = more cytotoxic; extreme values may be limits of the assay; details: 72 h; co-treatment: SL-176 11.2 uM (IC25 in IMR-32)
IMR-32 [4] = assay: as above; details: 72 h; co-treatment: SL-176 11.2 uM (IC25 in IMR-32)
SK-N-AS [5] = assay: drug sensitivity score (DSS) in combination with GSK2830371 (DSS (score)); neuroblastoma lines; SL-176 and GSK2830371 are WIP1 inhibitors; higher = more cytotoxic; extreme values may be limits of the assay; details: 72 h; co-treatment: GSK2830371 at IC25 in IMR-32
IMR-32 [6] = assay: as above; details: 72 h; co-treatment: GSK2830371 at IC25 in IMR-32
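Throughout, for drug sensitivity score (DSS) in combination with GSK2830371: neuroblastoma cells in 384-well plates, each compound at five concentrations, luminescence read-out, DSS derived from fitted concentration-response curve combining IC50 with minimum and maximum inhibition.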
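Throughout, for drug sensitivity score (DSS) in combination with SL-176: cells in 384-well plates, luminescence read-out, each screening drug at five concentrations, DSS derived from the fitted concentration-response curve combining IC50 with minimum and maximum inhibition.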
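Throughout, for drug sensitivity score (DSS), single drug with vehicle: 384-well screen with five concentrations per compound and a luminescence read-out, DSS computed from the fitted dose-response curve combining IC50 with minimum and maximum inhibition.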

Compound | drug sensitivity score (IMR-32 [1]) | drug sensitivity score (SK-N-AS [2]) | drug sensitivity score (SK-N-AS [3]) | drug sensitivity score (IMR-32 [4]) | drug sensitivity score (SK-N-AS [5]) | drug sensitivity score (IMR-32 [6])
Cc1cnc(Nc2ccc(OCCN3CCCC3)cc2)nc1Nc1cccc(S(=O)(=O)NC(C)(C)C)c1 [Fedratinib] | 8.5 | 7 | 6.7 | 8.6 | 8 | 7.7
O=C(Nc1cnn2ccc(N3CCC[C@@H]3c3cc(F)ccc3F)nc12)N1CC[C@H](O)C1 [Larotrectinib] | 0 | 0 | 0 | 0 | 0 | 0
C[C@H](Nc1ncnc2nc[nH]c12)c1cc2cccc(Cl)c2c(=O)n1-c1ccccc1 [Duvelisib] | 0 | 0 | 0 | 0 | 0 | 0
CCN(CC)CCOc1ccc(C(=C(Cl)c2ccccc2)c2ccccc2)cc1 [Clomifene] | 6 | 4.9 | 8 | 5.4 | 6.4 | 7.3
O=C(Nc1c[nH]nc1-c1nc2ccc(CN3CCOCC3)cc2[nH]1)NC1CC1 | 21.4 | 5 | 4.6 | 19.2 | 6.2 | 23.6
CCCN(CCC)C(=O)C1=Cc2ccc(-c3ccc(C(=O)N4CCCC4)cc3)cc2N=C(N)C1 [Motolimod] | 0.1 | 2.4 | 2.7 | 1.9 | 3.6 | 5.5
O=C(O)CC1CC(c2ccccc2)=NO1 (stereo not given) | 0 | 0 | 0 | 0 | 0 | 0
Cc1cnc(NC(=O)Nc2cc(Br)c(C)cc2OC[C@@H]2CNCCO2)cn1 [Rabusertib] | 2.7 | 3.9 | 3.1 | 2.1 | 4.7 | 4.1
C=CCc1cccc(/C=N/NC(=O)CN2CCN(Cc3ccccc3)CC2)c1O | 8.6 | 1.4 | 2.4 | 11.1 | 1.9 | 8.8
O=C(CCCCCCC(=O)Nc1ccccc1)NO [Vorinostat] | 16.6 | 11 | 12.2 | 18.1 | 11.7 | 19.8
Oc1nc(-c2ccc(C(F)(F)F)cc2)nc2c1CSCC2 | 0 | 0 | 0 | 0 | 0 | 1.7
Cc1cc(Nc2ncnc3ccc(NC4=NC(C)(C)CO4)cc23)ccc1Oc1ccn2ncnc2c1 [Tucatinib] | 0 | 0 | 0 | 0 | 0 | 0
COc1cc(Nc2ncc3c(n2)-c2ccc(Cl)cc2C(c2c(F)cccc2OC)=NC3)ccc1C(=O)O [Alisertib] | 34.3 | 13.7 | 11.1 | 35.3 | 13.5 | 35.3
COc1cc2ncnc(Nc3ccc(F)c(Cl)c3)c2cc1OCCCN1CCOCC1 [Gefitinib] | 5.1 | 1.9 | 2 | 4.4 | 2.7 | 6
Cc1c(Cn2c(C)nc3c(C(=O)O)cc(N4CCOCC4)cc32)cccc1C(F)(F)F | 0 | 0 | 0 | 0 | 0 | 0.6
FC(F)(F)c1ccc(CNc2ccc(Cc3c[nH]c4ncc(Cl)cc34)cn2)cn1 [Pexidartinib] | 3.7 | 0.9 | 1.1 | 5.5 | 0.7 | 4.6
O=C(O)c1ccc(CN2CCC(CN[C@@H]3C[C@H]3c3ccccc3)CC2)cc1 | 0 | 0 | 0 | 0 | 0 | 0
Nc1ncnc2c1nc(N)n2[C@@H]1O[C@H](CO)[C@@H](O)[C@H]1O [8-amino-adenosine] | 21.7 | 25.8 | 25.1 | 21.3 | 25.6 | 22.3
CNC(=O)c1cccc2cc(Oc3ccnc4cc(OCC5(N)CC5)c(OC)cc34)ccc12 [Lucitanib] | 7.5 | 1.3 | 1 | 7.6 | 0.7 | 8.6
NC[C@@](O)(c1ccc(Cl)cc1)c1ccc(-c2cn[nH]c2)cc1 | 5 | 3.5 | 3.9 | 4.7 | 1.9 | 6.9

Compound | drug sensitivity score (IMR-32 [1]) | drug sensitivity score (SK-N-AS [2]) | drug sensitivity score (SK-N-AS [3]) | drug sensitivity score (IMR-32 [4]) | drug sensitivity score (SK-N-AS [5]) | drug sensitivity score (IMR-32 [6])
CNC(=O)c1ccccc1Nc1nc(Nc2ccc3c(c2OC)CCC[C@H](N2CCN(CCO)CC2)C3)ncc1Cl | 6.2 | 9.7 | 9.4 | 7.7 | 9.2 | 4.9
C[C@H]1CN(C2COC2)CCN1c1ccc(Nc2cc(-c3ccnc(N4CCn5c(cc6c5CC(C)(C)C6)C4=O)c3CO)cn(C)c2=O)nc1 | 0.7 | 0 | 0 | 0 | 0 | 0
CN(c1ncccc1CNc1nc(Nc2ccc3c(c2)CC(=O)N3)ncc1C(F)(F)F)S(C)(=O)=O | 9.7 | 8.9 | 9.5 | 11.8 | 9 | 11.5
CC(C)C[C@H](NC(=O)[C@H](Cc1ccccc1)NC(=O)c1cnccn1)B(O)O [Bortezomib] | 35.2 | 28.3 | 27.5 | 30.4 | 28.6 | 31.2
CC[C@H](C)C(=O)O[C@H]1C[C@@H](C)C=C2C=C[C@H](C)[C@H](CC[C@@H]3C[C@@H](O)CC(=O)O3)[C@H]21 [Lovastatin] | 1.8 | 0 | 0 | 0 | 0 | 3.6
CNC(=O)c1cc(Oc2ccc(NC(=O)Nc3ccc(Cl)c(C(F)(F)F)c3)c(F)c2)ccn1 [Regorafenib] | 6.6 | 6.8 | 8 | 9 | 7.3 | 7.7
CCc1nc(C(N)=O)c(Nc2ccc(N3CCC(N4CCN(C)CC4)CC3)c(OC)c2)nc1NC1CCOCC1 [Gilteritinib] | 0.3 | 2.2 | 4 | 1.9 | 1.7 | 0.1
Clc1ccc(Nc2nnc(Cc3ccncc3)c3ccccc23)cc1 [Vatalanib] | 0 | 0 | 0 | 0 | 0 | 0
CC(C)(C)c1cnc(CSc2cnc(NC(=O)C3CCNCC3)s2)o1 | 25.5 | 20.3 | 19.1 | 28.9 | 19.7 | 27
Cn1cc(C[C@@H](N)C(=O)O)c2ccccc21 [1-methyl-D-tryptophan] | 0 | 0 | 0 | 0 | 0 | 0
CC[C@@](C)(Nc1ccnc(-c2c[nH]c3ncccc23)n1)C(=O)NCC(F)(F)F [Decernotinib] | 1.1 | 0 | 0 | 0 | 0 | 0.3
O=C(/C=C/c1cccnc1)NCCCCC1CCN(C(=O)c2ccccc2)CC1 [Daporinad] | 43.6 | 30 | 28.6 | 45.9 | 30.6 | 45.3
NC(=O)c1cccc(-c2cccc(OC(=O)NC3CCCCC3)c2)c1 | 0 | 0 | 0 | 0 | 0 | 0
CC[C@]12C=CCN3CC[C@@]4(c5cc([C@@]6(C(=O)OC)C[C@@H]7C[C@@H](C(C)(F)F)CN(Cc8c6[nH]c6ccccc86)C7)c(OC)cc5N(C)[C@H]4[C@@](O)(C(=O)OC)[C@@H]1OC(C)=O)[C@@H]32 [Vinflunine] | 7.4 | 7.8 | 7.4 | 10.1 | 7.8 | 6
CCS(=O)(=O)N1CC(CC#N)(n2cc(-c3ncnc4[nH]ccc34)cn2)C1 [Baricitinib] | 0 | 0 | 0 | 0 | 0 | 0
CCN(CC)CCNC(=O)c1c(C)[nH]c(/C=C2\C(=O)Nc3ccc(-c4csc(-c5ccccc5)n4)cc32)c1C [Amcasertib] | 9.3 | 7.5 | 10.9 | 15 | 9.3 | 12.9
CC(C)(C)NC(=O)[C@H]1CC[C@H]2[C@@H]3CC[C@H]4NC(=O)C=C[C@]4(C)[C@H]3CC[C@]12C [Finasteride] | 0 | 0 | 0 | 0 | 0 | 0.2
O=C(NOCCO)c1ccc2cncn2c1Nc1ccc(I)cc1F | 3.3 | 7.1 | 6.4 | 3 | 6.6 | 1.5
COc1cc2ncnc(Nc3ccc(F)c(Cl)c3)c2cc1NC(=O)/C=C/CN1CCCCC1 [Dacomitinib] | 0 | 1.4 | 0.9 | 0.3 | 0.9 | 0
CC(C)[C@@H](CS(=O)(=O)C(C)C)N1C(=O)[C@@](C)(CC(=O)O)C[C@H](c2cccc(Cl)c2)[C@H]1c1ccc(Cl)cc1 | 17.5 | 0 | 0 | 20.5 | 0 | 23.5
